Results: PubChem BioAssay AID624417 (National Center for Advancing Translational Sciences (NCATS), 2012)
Hit rate of the full screen: of about 410,000 compounds, about 6,400 (1.6%) were called active. This list was built around the results that the source calls inconclusive (neither active nor inactive); the mix of calls is not that of the screen. The call rests on the fitted dose curve; in most records, active means well fitted inhibition curve with a large enough effect; inconclusive means small, poorly fitted or top-dose-only effect; inactive means no such curve, though single readings can be large or run the other way. Potencies beside an inconclusive call are fits to weak or partial responses and may not hold up.

What follows are molecules tested against Glucagon-like peptide 1 receptor (Homo sapiens) (UniProt P43220) (assay: qHTS of GLP-1 Receptor Inverse Agonists (Inhibition Mode)). Details: HEK293 GLP-1R CRE-luciferase, luminescence, 24 h, GLP-1R form is constitutively active; activity change, negative = inhibition: at 38.3 µM (top of the series) unless noted.
In short: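 Assay principle: reduced luminescence from a cAMP-responsive reporter in HEK293 cells co-expressing a constitutively active GLP-1R. Conditions: 24 hr compound incubation, 37 deg C, 5% CO2.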
Further: nearly all actives have a fitted effect of over 55% in size.
On the % scale 0 is the no-effect control and ±100 the full control effect; potency means the concentration at half of the fitted maximal effect; tags describe the fitted curve by direction and shape.

Chain of UniProt P43220 (P43220 whole entry, looked up): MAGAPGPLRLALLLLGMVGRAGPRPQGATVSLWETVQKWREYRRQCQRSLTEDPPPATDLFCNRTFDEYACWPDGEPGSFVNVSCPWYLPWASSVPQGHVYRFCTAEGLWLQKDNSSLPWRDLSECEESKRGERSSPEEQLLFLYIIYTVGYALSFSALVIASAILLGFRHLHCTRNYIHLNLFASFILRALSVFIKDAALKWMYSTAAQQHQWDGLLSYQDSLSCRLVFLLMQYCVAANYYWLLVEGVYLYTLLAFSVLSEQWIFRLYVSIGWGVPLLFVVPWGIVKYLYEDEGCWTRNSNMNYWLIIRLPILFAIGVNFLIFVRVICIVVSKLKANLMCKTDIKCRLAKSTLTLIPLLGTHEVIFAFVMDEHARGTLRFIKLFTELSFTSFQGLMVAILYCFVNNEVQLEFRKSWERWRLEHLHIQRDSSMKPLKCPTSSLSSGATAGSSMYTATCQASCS

Potency, inconclusive:
O=S(=O)(NCc1csc(-c2ccccc2)n1)c1ccc(Cl)s1 22.4 µM [inhibitor, single point]
COc1cccc(C(=O)OCC(=O)c2c[nH]c3ccccc23)c1OC 28.2 µM [inhibitor, single point]
CC(C)C(=O)NC(c1ccc(Cl)cc1Cl)c1ccc2cccnc2c1O (stereo not given) 3.55 µM [inhibitor, full curve, poor fit]
O=C(Nc1ccc2c(c1)OCO2)c1cc(C2CCCN(C(=O)CCCc3ccccc3)C2)on1 (stereo not given) 31.6 µM [inhibitor, single point]
Cc1cc(/C=C2/SC(=S)N(c3cccc(Cl)c3)C2=O)c(C)n1-c1cccnc1 12.6 µM [inhibitor, partial curve, poor fit]
O=C1Nc2ccc(Cl)cc2C(C#CC2CC2)(C(F)(F)F)O1 (stereo not given) 20 µM [inhibitor, single point]
CCOc1ccccc1NC(=O)NNS(=O)(=O)c1cc(C)ccc1C 10 µM [inhibitor, partial curve, poor fit]
COc1cc(CNC(=O)c2cc(-c3cc(Cl)ccc3C)n[nH]2)cc(OC)c1 11.2 µM [inhibitor, partial curve, poor fit]
O=C(NCc1nc2ccccc2[nH]1)C1=C[C@H](C2CCCCC2)C[C@H](OCc2ccc(CO)cc2)O1 10 µM [inhibitor, partial curve]
S=C(NC1CCCCC1)NC1CC2CCC(C1)N2Cc1ccccc1 (stereo not given) 8.91 µM [inhibitor, partial curve, poor fit]
Cc1ccc(C)c(S(=O)(=O)N2CCN(CC(=O)Nc3ccc([N+](=O)[O-])cc3)CC2)c1 14.1 µM [inhibitor, single point]
COc1ccc2c(c1)Sc1ccccc1N2CCN(C)C 10 µM [inhibitor, single point]
CCC(CO)NCC#Cc1ccccc1 (stereo not given) 28.2 µM [inhibitor, single point]
COc1ccc(Nc2ccc(S(=O)(=O)N3CCCCCC3)cc2[N+](=O)[O-])cc1 12.6 µM [inhibitor, single point]
CCOC(=O)c1cccc(NS(=O)(=O)c2ccc(-c3cnc(C4CC4)o3)cc2)c1 1.58 µM [inhibitor, full curve, poor fit]
Cc1[nH]n(-c2ccc(Br)cc2)c(=O)c1/C=N/NC(=O)c1ccccc1 3.55 µM [inhibitor, full curve, poor fit]
COc1cc(/C=C(\C#N)c2ccccn2)ccc1OCc1ccc(Cl)cc1 3.55 µM [inhibitor, full curve]
Cc1ccc(C(=O)NCc2ccc3c(c2)OCO3)cc1Cl 10 µM [inhibitor, single point]
COc1ccc(/C=N/NC(=O)c2ccc(-c3ccccc3)cc2)cc1O 28.2 µM [inhibitor, single point]
CCOC(=O)C1=C(C)N(C[C@@H]2CC[C@@H](Cc3ccc(-c4ccccc4)cc3)O2)C(=O)NC1c1cccc([N+](=O)[O-])c1 (stereo not given in full) 7.94 µM [inhibitor, partial curve, poor fit]
O=C(NCCCC1CCCC1)C1CCC(=O)N(Cc2ccc(Cl)cc2)C1 (stereo not given) 10 µM [inhibitor, partial curve]
Cc1cccc(OCc2nnc(SCC(=O)c3ccccc3)o2)c1 28.2 µM [inhibitor, single point]
Cc1ccc(C(C)NC(=O)c2ccc3c(c2)OCO3)cc1C (stereo not given) 7.08 µM [inhibitor, partial curve]
COc1ccc(OC)c(-c2csc(NC(=O)C3c4ccccc4Oc4ccccc43)n2)c1 22.4 µM [inhibitor, single point]
O=C(NC1CCCC1)c1cc(Nc2cccc(C(F)(F)F)c2)nc2ccccc12 12.6 µM [inhibitor, single point]
Cn1c(CN2CCCCC2)nc2cc(NC(=O)c3ccccc3Cl)ccc21 28.2 µM [inhibitor, single point]
O=C(Nc1ncc(Cc2ccc(C(F)(F)F)cc2)s1)c1ccc(-c2cccc([N+](=O)[O-])c2)o1 2 µM [inhibitor, partial curve, poor fit]
Cc1ccc(C(CC(=O)NCc2ccco2)c2ccc(OC(C)C)cc2)cc1 (stereo not given) 11.2 µM [inhibitor, partial curve, poor fit]
CC(=O)c1c(C)[nH]c(C(=O)N(C)CC(=O)Nc2ccc(Cl)c(C(F)(F)F)c2)c1C 14.1 µM [inhibitor, single point]
CCOc1ccc(Cl)cc1-c1cc(C(=O)Nc2ccc(Br)cc2)[nH]n1 14.1 µM [inhibitor, single point]
C=CCOc1ccc(C2NC(=S)NC3=C2CCc2ccccc23)cc1 (stereo not given) 31.6 µM [inhibitor, partial curve, poor fit]
CCC(=O)c1ccc(OCC(O)Cn2nc(C)c(Br)c2C)cc1 (stereo not given) 28.2 µM [inhibitor, single point]
CN(Cc1ccccc1)CC(O)COc1ccc(CNCc2nccn2C)cc1 (stereo not given) 31.6 µM [inhibitor, single point]
C=CCNC(=S)N/N=C/c1ccc(-c2ccc(Br)cc2)o1 1.26 µM [inhibitor, partial curve, poor fit]
O=C(Cc1cccc(C(F)(F)F)c1)Nc1ccccc1 10 µM [inhibitor, single point]
COc1ccccc1CCNC(=O)C(=O)NCCC1CCCCN1S(=O)(=O)c1cccs1 (stereo not given) 10 µM [inhibitor, partial curve, poor fit]
O=C(COC(=O)C1CC2C=CC1C2)Nc1cccc(S(=O)(=O)N2CCCCC2)c1 (stereo not given) 11.2 µM [inhibitor, single point]
CCOC(=O)c1ccc(N/C=C/C(=O)C(C)(C)C)cc1 28.2 µM [inhibitor, single point]
Cc1ccc(C)c(S(=O)(=O)N2CCN(C(=O)c3cc(-c4cccs4)nn3-c3ccccc3)CC2)c1 3.55 µM [inhibitor, partial curve, poor fit]
CN(CC(=O)Nc1cccc(F)c1)CC(=O)Nc1cccc2ccccc12 31.6 µM [inhibitor, partial curve, poor fit]
Clc1ccc(C(c2ccccc2)c2c[nH]c3ccccc23)s1 (stereo not given) 14.1 µM [inhibitor, partial curve, poor fit]
COc1ccc(S(=O)(=O)N2N=C(C)Oc3ccccc3C2=O)cc1 1.41 µM [inhibitor, full curve]
COc1ccc(C(=O)/C=C/c2ccc3c(c2)OCCO3)cc1 12.6 µM [inhibitor, single point]
CC(C)c1ccc(C(=O)OCC(=O)c2c(N)n(C)c(=O)n(C)c2=O)cc1 10 µM [inhibitor, partial curve]
O=C1[C@H]2[C@@H](c3ccc(F)cc3)N3C(=O)N(c4cccc(Cl)c4)C(=O)[C@@]3(Cc3ccc(Cl)cc3)[C@H]2C(=O)N1C1CCCCC1 5.01 µM [inhibitor, full curve, poor fit]
Cc1ccc(/C=N/NC(=O)c2ccccc2OCc2ccc(F)cc2)o1 7.94 µM [inhibitor, partial curve, poor fit]

Potency, active:
CC1CCCC(NC(=O)c2cccc(S(=O)(=O)NCc3ccccc3)c2)C1C (stereo not given) 11.2 µM
CCCC(C)NC(=O)c1nc(-c2ccccc2)n(-c2ccccc2)n1 (stereo not given) 8.91 µM
CC(Sc1nnc(CN2CCCC2)n1Cc1ccccc1)C(=O)Nc1ccc(F)c(F)c1F (stereo not given) 5.01 µM
CCn1cc(C(=O)NCCCN2CCCC(C)C2)c(=O)c2cc(S(=O)(=O)N3CCc4ccccc4C3)ccc21 (stereo not given) 10 µM

Activity change, negative = inhibition, inactive:
CC(c1ccccc1F)n1cc(C(=O)NCc2ccncc2)nn1 (stereo not given) -0.73%
O=C(C1CCN(S(=O)(=O)Cc2ccccc2)CC1)N1CCN(c2ccccc2)CC1 -0.601%
NC(=O)c1nc(Nc2ccccc2)sc1NC(=O)c1ccccc1Br -11.8%
Nc1c(C(=O)N2CCCCC2)sc2nc3c(cc12)CCCC3 4.83%
CCOC(=O)N1CCC(=NNS(=O)(=O)c2cccc([N+](=O)[O-])c2)CC1 0%
CCOc1ccc2oc(=O)cc(C)c2c1 24.8%
CCCCc1c(C)nc2c(-c3ccc(OC)cc3)c(C)[nH]n2c1=O -3.97%
CSc1nnc(-c2sc(-c3ccccc3)nc2C)n1C 0%
CCCCNC(=O)CCCn1c(=O)c2ccccc2n(Cc2cccc(Cl)c2)c1=O -16.6%
Cc1ccc(-n2nc(CO)c(C(=O)NCc3cccnc3)n2)cc1 -9.8%
O=C(Nc1nnc(SCc2ccc(F)cc2)s1)C1=COCCO1 -7.65%
COc1cc(S(=O)(=O)N2CCC(O)(c3cccc(C(F)(F)F)c3)CC2)ccc1-n1cnnn1 0%
O=C(NCCN1CCCCC1)Nc1ccc(F)cc1 -3.6%
O=c1oc2cc(Br)ccc2n1CSC1=NCCS1 -18.1%
C(=C\c1nnc(-c2cccs2)o1)/c1ccccc1 0.434%
